In the supplement of paper PMC10369915:
This is one part of the list. No stated cut-off is given here; in the data, active = 3.2 or more and inactive = the rest. Most of these values are background signal.

Key:
Test in all cases: enrichment score (SH2-bound / input frequency) (ratio); bacterial display of known human phosphotyrosine sites (pTyr-Var adds point mutants) read by sequencing; higher = stronger binding; tyrosines were phosphorylated by kinases first
Details in all cases: peptide library: Human pTyr
[1] = molecular target: SHP2 C-SH2 domain E139D
[2] = molecular target: SHP2 C-SH2 domain wild-type
[3] = molecular target: SHP2 N-SH2 domain L43F
[4] = molecular target: SHP2 N-SH2 domain T42A
[5] = molecular target: SHP2 N-SH2 domain T52S
[6] = molecular target: SHP2 N-SH2 domain wild-type

Measured: enrichment score
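Further: displayed peptides selected on beads carrying the immobilized SH2 domain, with library peptides lacking any tyrosine serving as negative controls.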

FTPDHVVYARSKTAV [PTRF_HUMAN_308]
inactive: [1] 0.669 | [2] 0.726 | [3] 0.876 | [4] 0.584 | [5] 0.595 | [6] 0.73

GGAVAQGYVPHNYLA [PTK6_HUMAN_61]
inactive: [1] 0.607 | [2] 0.509 | [3] 0.536 | [4] 0.505 | [5] 0.504 | [6] 0.55

KIQNTGDYADLAGGE [PTN11_HUMAN_62_YA]
inactive: [1] 0.881 | [2] 0.673 | [3] 0.768 | [4] 0.664 | [5] 0.823 | [6] 0.887

SEKPSADYVLSVRDT [PTK6_HUMAN_114]
inactive: [1] 0.743 | [2] 0.556 | [3] 0.781 | [4] 0.557 | [5] 0.682 | [6] 0.905

SGSWAAIYQDIRHEA [PTN1_HUMAN_20]
inactive: [1] 0.946 | [2] 1.05 | [3] 0.965 | [4] 0.929 | [5] 1.44 | [6] 0.906

GDVHQGIYMSPENPA [PTK2_HUMAN_441]
inactive: [1] 0.499 | [2] 0.508 | [3] 0.638 | [4] 0.435 | [5] 0.527 | [6] 0.522

GHAMADTYAVVQKRG [PTPN18_HUMAN_354]
inactive: [1] 0.959 | [2] 1 | [3] 0.9 | [4] 0.89 | [5] 0.982 | [6] 0.893

KDVYNSEYYHFRQAW [PTK7_HUMAN_960]
inactive: [1] 1.04 | [2] 0.792 | [3] 1.02 | [4] 1.06 | [5] 0.901 | [6] 0.797

MVSTFEQYQFLADVI [PTPRC_HUMAN_1216_YA]
inactive: [1] 1.15 | [2] 1.11 | [3] 1.1 | [4] 1.03 | [5] 1.04 | [6] 1.27

DVANSEAYHFRQAWV [PTK7_HUMAN_961_YA]
inactive: [1] 0.748 | [2] 0.692 | [3] 0.736 | [4] 0.786 | [5] 0.566 | [6] 0.652

FNQNKNRYVDILPYD [PTPRC_HUMAN_681]
active: [2] 8.19
inactive: [1] 2.65 | [3] 1.25 | [4] 2.22 | [5] 1.57 | [6] 1.17

DVYNSEYYHFRQAWV [PTK7_HUMAN_961]
inactive: [1] 1.3 | [2] 1.26 | [3] 0.981 | [4] 1.15 | [5] 0.981 | [6] 1.33

KDVANSEYAHFRQAW [PTK7_HUMAN_960_YA]
inactive: [1] 0.784 | [2] 0.731 | [3] 0.948 | [4] 0.797 | [5] 1.04 | [6] 0.771

SGDFYDLYGGEKFAT [PTN6_HUMAN_64]
inactive: [1] 0.7 | [2] 0.651 | [3] 0.657 | [4] 0.756 | [5] 0.528 | [6] 0.712

MQRAYGPYSVTNCGE [PTN6_HUMAN_377]
inactive: [1] 0.864 | [2] 0.778 | [3] 0.82 | [4] 0.794 | [5] 0.739 | [6] 0.836

SPAGSGAYEDVAGGA [PTN18_HUMAN_426]
inactive: [1] 0.587 | [2] 0.465 | [3] 0.587 | [4] 0.534 | [5] 0.632 | [6] 0.643

SKHKEDVYENLHTKN [PTN6_HUMAN_564]
inactive: [1] 1.23 | [2] 1.27 | [3] 1.1 | [4] 1.06 | [5] 1.2 | [6] 1.15

SGDFADLYGGEKFAT [PTN6_HUMAN_64_YA]
inactive: [1] 0.611 | [2] 0.449 | [3] 0.41 | [4] 0.564 | [5] 0.594 | [6] 0.4
